Laboratory results taken from PubChem BioAssay (Tox21).
“And” between values parts separate entries of the source, which are not always exact repeats. Identical values can stand only once. The source made the active and inactive calls. Unless noted, calls come from the whole dose curve; as a rule, active = well fitted curve in the direction sought with a large enough effect in the repeat runs; inconclusive = weak or mixed curves; inactive = no such curve, though single readings can be large; an effect the other way counts as inactive or inconclusive.

Tests used:
[1] = A CellTox Green Cytotoxicity Assay to monitor cytotoxicity in HEK293 cells - 40 hour (AID 1224871); note: nearly all actives have a fitted effect of over 45% in size; note: potency is the fitted concentration of half-maximal effect
In short: (§1)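 Read-out: fluorescence of a cell-impermeant cyanine dye staining DNA of dead cells, proportional to cytotoxicity. HEK293, 600 cells/well with reagent, compound (23 nL DMSO) added after 5 h; reads at 0, 8, 16, 24, 32, 40 h.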

[2] = qHTS assay to identify small molecule antagonists of the TGF-beta/Smad signaling pathway (AID 1346924; active = well fitted inhibition curve with a large enough effect in the signal ratio in the repeat runs, not every such curve was filed as active; inconclusive = weak or mixed curves; the % refers to the signal ratio); settings: SBE-bla HEK293T, TGF-beta/Smad reporter, beta-lactamase ratio; activity, negative = inhibition: at 76.8 µM (top of the series) unless noted
In short: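 Read-out was FRET-substrate fluorescence (405 nm excitation; 460 and 530 nm emission) after 2 h at room temperature. Before that, cells carrying a Smad-binding-element beta-lactamase reporter in HEK 293T had been stimulated 5 h at 37 C with TGF-beta1 (0.25 ng/mL addition solution) in the presence of test compound.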

[3] = qHTS assay to identify small molecule agonists of the constitutive androstane receptor (CAR) signaling pathway - cell viability counter screen (AID 1224836); note: potency is the fitted concentration of half-maximal effect; nearly all actives have a fitted effect of over 45% in size
In short: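 Fluorescence from CellTiter-Fluor indicates live cells after 23 h exposure. The human hepatoma line expresses hCAR and a CYP2B6-2.2kb reporter. Incubation medium contains 0.75 uM PK11195 (final).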

[4] = A CellTox Green Cytotoxicity Assay to monitor cytotoxicity in HEK293 cells - 8 hour (AID 1224884); note: nearly all actives have a fitted effect of over 35% in size; note: potency is the fitted concentration of half-maximal effect
In short: as §1

[5] = target: Glucocorticoid receptor (Homo sapiens) (UniProt P04150); experiment: qHTS assay to identify small molecule agonists of the glucocorticoid receptor (GR) signaling pathway (AID 720691; active = well fitted activation curve with a large enough effect in the signal ratio in the repeat runs, not every such curve was filed as active; inconclusive = weak or mixed curves, or effect the other way; inactive = no such curve, though single readings can be large or run the other way; the % refers to the signal ratio; note: % is set by controls: 0 for no effect and ±100 for the full control effect); settings: GR-bla HeLa, beta-lactamase reporter ratio, 18 h; activation: at 62.4 µM (top of the series) unless noted
Chain of UniProt P04150 (P04150 whole entry, looked up): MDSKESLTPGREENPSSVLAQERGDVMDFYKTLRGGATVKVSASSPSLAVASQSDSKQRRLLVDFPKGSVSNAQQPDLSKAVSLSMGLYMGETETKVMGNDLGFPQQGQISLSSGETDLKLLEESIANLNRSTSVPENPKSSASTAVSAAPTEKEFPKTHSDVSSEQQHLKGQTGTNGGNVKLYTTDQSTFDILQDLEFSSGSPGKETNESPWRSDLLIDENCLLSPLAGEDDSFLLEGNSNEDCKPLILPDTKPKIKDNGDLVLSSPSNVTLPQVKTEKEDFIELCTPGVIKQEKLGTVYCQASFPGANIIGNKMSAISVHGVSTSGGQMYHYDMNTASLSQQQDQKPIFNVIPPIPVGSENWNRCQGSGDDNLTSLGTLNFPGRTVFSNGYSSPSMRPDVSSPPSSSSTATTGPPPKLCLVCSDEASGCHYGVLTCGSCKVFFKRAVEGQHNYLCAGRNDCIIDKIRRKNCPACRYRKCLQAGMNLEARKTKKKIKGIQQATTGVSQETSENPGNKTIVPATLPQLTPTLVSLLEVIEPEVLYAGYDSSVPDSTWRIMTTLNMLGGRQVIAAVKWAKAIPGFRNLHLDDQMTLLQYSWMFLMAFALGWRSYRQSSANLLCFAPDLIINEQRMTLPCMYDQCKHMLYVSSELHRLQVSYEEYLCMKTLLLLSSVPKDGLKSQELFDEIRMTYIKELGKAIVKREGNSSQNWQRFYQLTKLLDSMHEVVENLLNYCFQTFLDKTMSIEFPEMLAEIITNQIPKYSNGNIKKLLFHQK
In short: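 HeLa GR-bla reporter line; cells pre-incubated 4 h, compound in DMSO 18 h at 37 C; LiveBLAzer B/G FRET substrate 2 h RT; fluorescence intensity read-out.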

[6] = A CellTox Green Cytotoxicity Assay to monitor cytotoxicity in HepG2 cells - 16 hour (AID 1224876); note: nearly all actives have a fitted effect of over 45% in size; note: potency is the fitted concentration of half-maximal effect
In short: (§2)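 HepG2, 600 cells/well premixed w/ CellTox Green; 5 h settle, 37 C/5% CO2; pintool cpd add (DMSO); 37 C, 40 h; fluorescence read at 0, 8, 16, 24, 32, 40 h.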

[7] = qHTS assay to identify small molecule agonists of the estrogen related receptor (ERR) signaling pathway from Tox21 library (AID 1224849; calls by dose curve; note: % is set by controls: 0 for no effect and ±100 for the full control effect; nearly all actives have a fitted effect of over 15% in size); settings: ERR reporter cell line, ONE-Glo luciferase, 18 h; at 92.4 µM (top of the series) unless noted
In short: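 Luminescence readout (ONE-Glo, 30 min RT) after 18 h compound exposure at 37 C of NTP-supplied ERR reporter cells; cells were plated 6 h before compound addition by pin tool.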

[8] = qHTS assay to identify small molecule antagonists of the estrogen receptor beta (ER-beta) signaling pathway - cell viability counter screen (AID 1259382); note: nearly all actives have a fitted effect of over 55% in size; note: potency is the fitted concentration of half-maximal effect;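 for activity change, negative = cytotoxicity: HEK293T cells carrying ER-beta-UAS-bla reporter stimulated with estradiol; % is set by controls: 0 for no effect and ±100 for the full control effect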
In short: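 Luminescent ATP read-out (CellTiter-Glo, 30 min, RT) taken in the same wells as the bla reporter assay. HEK293T ER-beta-UAS-bla cells in 2% charcoal-stripped FBS were exposed to compounds with 1nM E2 for 16 hr at 37C.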

[9] = target: Estrogen receptor (Homo sapiens) (UniProt P03372); experiment: qHTS assay to identify small molecule agonists of the estrogen receptor alpha (ER-alpha) signaling pathway (AID 743075; calls by dose curve;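 note: HEK293 GripTite cells with ER-alpha and UAS-driven beta-lactamase reporter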; note: potency is the fitted concentration of half-maximal effect; for activation: % is set by controls: 0 for no effect and ±100 for the full control effect); settings: HEK293 ER-alpha-UAS-bla, beta-lactamase FRET ratio, 18 h; activation: at 70.1 µM (top of the series)
Chain of UniProt P03372 (P03372 whole entry, looked up): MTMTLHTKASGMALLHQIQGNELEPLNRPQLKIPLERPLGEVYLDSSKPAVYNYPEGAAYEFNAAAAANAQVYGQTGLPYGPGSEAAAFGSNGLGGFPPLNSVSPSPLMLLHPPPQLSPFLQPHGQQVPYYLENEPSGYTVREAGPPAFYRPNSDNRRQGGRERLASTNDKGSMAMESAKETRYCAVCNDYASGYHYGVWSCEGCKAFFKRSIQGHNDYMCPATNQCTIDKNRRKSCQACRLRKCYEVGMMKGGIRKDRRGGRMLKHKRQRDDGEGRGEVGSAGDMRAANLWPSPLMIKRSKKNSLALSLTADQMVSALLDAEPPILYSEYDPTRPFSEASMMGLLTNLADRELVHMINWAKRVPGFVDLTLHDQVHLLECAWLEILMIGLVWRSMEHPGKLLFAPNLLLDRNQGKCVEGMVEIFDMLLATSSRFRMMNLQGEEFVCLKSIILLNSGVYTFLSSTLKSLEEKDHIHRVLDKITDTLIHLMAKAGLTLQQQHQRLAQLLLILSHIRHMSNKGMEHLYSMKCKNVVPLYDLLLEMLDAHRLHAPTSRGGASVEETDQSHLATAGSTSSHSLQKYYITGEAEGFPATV

[10] = qHTS assay to identify small molecule that activate the aryl hydrocarbon receptor (AhR) signaling pathway - cell viability counter screen (AID 743086);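 note: HepG2 liver cells carrying the AhR DRE luciferase reporter; % is set by controls: 0 for no effect and ±100 for the full control effect; nearly all actives have a fitted effect of over 45% in size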
In short: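 HepG2-AhR-luc (HG2L7.5c1) cells, 4000/well, were preincubated 5 h at 37C, exposed to compound in qHTS format for 24 hr at 37C, then given CellTiter-Fluor for 30 min; viability was read as fluorescence in the reporter wells.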

[11] = qHTS assay to identify small molecule antagonists of the androgen receptor (AR) signaling pathway using the MDA cell line - cell viability counter screen (AID 743041; note: nearly all actives have a fitted effect of over 45% in size; note: potency is the fitted concentration of half-maximal effect); settings: MDA-kb2 viability, CellTiter-Fluor, 16 h, cells co-treated with R1881 androgen agonist; viability change, negative = cytotoxic: at 70.3 µM (top of the series)
In short: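 qHTS viability read-out; MDA-kb2 AR-luc; R1881-stimulated; 16 h exposure at 37C, 0% CO2; CellTiter-Fluor, 30 min; fluorescence intensity.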

[12] = target: Bile acid receptor (Homo sapiens) (UniProt Q96RI1); experiment: qHTS assay to identify small molecule agonists of the farnesoid-X-receptor (FXR) signaling pathway (AID 743220; active = well fitted activation curve with a large enough effect in the signal ratio in the repeat runs, not every such curve was filed as active; inconclusive = weak or mixed curves, or effect the other way; the % refers to the signal ratio; note: potency is the fitted concentration of half-maximal effect; for activation: % is set by controls: 0 for no effect and ±100 for the full control effect); settings: HEK293T FXR-UAS-bla, beta-lactamase FRET ratio, 16 h; activation: at 62.6 µM (top of the series) unless noted
Chain of UniProt Q96RI1 (Q96RI1 whole entry, looked up): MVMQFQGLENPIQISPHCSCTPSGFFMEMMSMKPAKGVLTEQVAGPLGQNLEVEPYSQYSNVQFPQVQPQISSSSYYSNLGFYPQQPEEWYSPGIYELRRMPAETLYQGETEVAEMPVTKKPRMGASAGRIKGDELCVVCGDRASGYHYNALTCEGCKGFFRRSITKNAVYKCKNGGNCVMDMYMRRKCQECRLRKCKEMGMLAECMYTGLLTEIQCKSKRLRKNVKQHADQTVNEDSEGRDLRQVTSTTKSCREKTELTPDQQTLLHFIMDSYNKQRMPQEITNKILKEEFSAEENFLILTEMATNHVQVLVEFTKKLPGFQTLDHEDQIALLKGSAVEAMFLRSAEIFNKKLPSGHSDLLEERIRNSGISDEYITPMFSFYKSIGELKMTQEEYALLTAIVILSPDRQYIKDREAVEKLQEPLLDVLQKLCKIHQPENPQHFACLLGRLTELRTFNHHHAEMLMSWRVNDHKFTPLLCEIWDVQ
In short: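 FXR-UAS-bla HEK 293T cells carrying a UAS-driven beta-lactamase reporter were plated for 5 h at 37C/5% CO2, then exposed to DMSO-dissolved Tox21 10K compounds for 16 h at 37C. A LiveBLAzer B/G FRET substrate was loaded for 2 h at room temperature before fluorescence reading.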

[13] = qHTS assay to identify small molecule agonists of the estrogen receptor alpha (ER-alpha) signaling pathway in the presence of an antagonist - cell viability counter screen (AID 1259386);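 note: cells exposed to compounds for 22 h at 37 °C before the viability read; nearly all actives have a fitted effect of over 30% in size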; note: potency is the fitted concentration of half-maximal effect
In short: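 Read-out: CellTiter-Fluor fluorescence after 1hr reagent incubation, measured in the same wells as the luciferase readout. VM7Luc4E2 cells were exposed to 15 compound concentrations with 10.0nM ICI-182,780 for 22hr at 37C.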

[14] = qHTS assay to identify small molecule antagonists of the estrogen receptor alpha (ER-alpha) signaling pathway using the BG1 cell line in the presence of 0.1 nM 17-beta-estradiol - cell viability counter screen (AID 1259241); note: nearly all actives have a fitted effect of over 40% in size; note: potency is the fitted concentration of half-maximal effect
In short: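 Viability in VM7Luc4E2 cells after 22 hr compound exposure under 0.1 nM 17beta-estradiol stimulation, by CellTiter-Fluor.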

[15] = qHTS assay for small molecule agonists of the antioxidant response element (ARE) signaling pathway - cell viability counter screen (AID 743203; calls by dose curve; note: % is set by controls: 0 for no effect and ±100 for the full control effect; nearly all actives have a fitted effect of over 55% in size); settings: ARE-bla HepG2 viability, CellTiter-Glo luminescence, 16 h; viability change, negative = cytotoxic: at 73.3 µM (top of the series)
In short: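 Luminescence read-out (CellTiter-Glo, 30 min at room temperature) measured cell viability in the same wells as the ARE beta-lactamase reporter. HepG2 ARE-bla cells were treated with compounds for 16 hrs at 37C/5% CO2.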

[16] = A CellTox Green Cytotoxicity Assay to monitor cytotoxicity in HepG2 cells - 8 hour (AID 1224890)
In short: as §2

[17] = target: Voltage-gated inwardly rectifying potassium channel KCNH2 (Homo sapiens) (UniProt Q12809); experiment: Human Ether-a-go-go-Related Gene (hERG) channel small molecule antagonists: fluorescence cell-based qHTS assay (AID 1671200); note: nearly all actives have a fitted effect of over 50% in size; note: potency is the fitted concentration of half-maximal effect
Chain of UniProt Q12809 (Q12809 whole entry, looked up): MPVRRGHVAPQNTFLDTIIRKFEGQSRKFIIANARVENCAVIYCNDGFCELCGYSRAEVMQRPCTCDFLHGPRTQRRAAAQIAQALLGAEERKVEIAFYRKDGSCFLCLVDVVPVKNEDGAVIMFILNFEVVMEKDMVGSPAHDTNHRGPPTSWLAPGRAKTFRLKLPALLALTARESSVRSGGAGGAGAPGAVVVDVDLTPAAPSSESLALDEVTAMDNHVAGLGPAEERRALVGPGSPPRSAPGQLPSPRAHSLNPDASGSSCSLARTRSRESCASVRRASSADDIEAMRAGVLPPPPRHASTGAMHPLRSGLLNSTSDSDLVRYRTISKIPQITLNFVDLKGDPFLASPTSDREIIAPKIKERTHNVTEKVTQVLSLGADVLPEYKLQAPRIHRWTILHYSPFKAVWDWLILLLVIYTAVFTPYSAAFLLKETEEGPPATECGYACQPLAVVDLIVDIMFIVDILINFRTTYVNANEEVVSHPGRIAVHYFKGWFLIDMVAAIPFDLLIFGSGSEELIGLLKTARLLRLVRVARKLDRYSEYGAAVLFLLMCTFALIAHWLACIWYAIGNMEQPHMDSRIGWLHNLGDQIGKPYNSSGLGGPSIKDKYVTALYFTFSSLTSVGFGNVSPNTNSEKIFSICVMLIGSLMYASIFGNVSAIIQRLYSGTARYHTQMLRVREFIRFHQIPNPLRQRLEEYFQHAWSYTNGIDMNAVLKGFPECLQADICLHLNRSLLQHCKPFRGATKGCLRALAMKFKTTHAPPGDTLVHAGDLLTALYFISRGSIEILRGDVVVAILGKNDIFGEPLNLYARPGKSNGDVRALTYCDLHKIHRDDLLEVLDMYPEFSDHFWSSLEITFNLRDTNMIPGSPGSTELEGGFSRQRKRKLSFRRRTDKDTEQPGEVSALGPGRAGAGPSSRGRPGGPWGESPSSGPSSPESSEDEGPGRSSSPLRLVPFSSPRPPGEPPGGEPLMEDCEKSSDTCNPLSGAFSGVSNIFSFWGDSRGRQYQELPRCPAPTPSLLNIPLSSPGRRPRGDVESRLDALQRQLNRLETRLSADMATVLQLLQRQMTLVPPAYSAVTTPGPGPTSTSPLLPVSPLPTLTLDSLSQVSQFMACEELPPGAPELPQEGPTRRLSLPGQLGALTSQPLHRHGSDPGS
In short: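 First, 1000 cells per well are seeded and cultured overnight at 37 C. Next, FluxOR II dye is loaded for 1 h at room temperature, protected from light. After 10 more minutes, stimulus is added and fluorescence is read.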

[18] = tested on: estrogen-related receptor alpha (ERRalpha) with PGC-1alpha coactivator, human; experiment: qHTS assay to identify small molecule antagonists of the estrogen related receptor signaling pathway with the pleiotropic PPARgamma coactivator (PGC) (AID 1224821; calls by dose curve; note: potency is the fitted concentration of half-maximal effect; nearly all actives have a fitted effect of over 50% in size)
In short: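 A PGC/ERR cell line supplied by NTP is seeded, allowed 6 h at 37 C, and treated with test compounds in DMSO for 18 h. Signal is then measured as luciferase luminescence using One-Glo.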

[19] = qHTS assay to identify small molecule antagonists of the estrogen related receptor signaling pathway with the pleiotropic PPARgamma coactivator (PGC) cell viability counter screen (AID 1224822;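 note: potency is the fitted concentration of half-maximal effect; viability read after 17.5 h compound exposure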)
In short: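 Fluorescence read-out of CellTiter-Fluor after 30 min at 37 C; PGC/ERR cells, 2,000 per well, had been exposed to DMSO-dissolved compounds for 17.5 h following a 6 h pre-incubation.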
Tags give direction and shape of the fitted curve or compound fluorescence and quenching.

CCCCCCCCCCCCCCCCO
Potency [1]: inactive | activity, negative = inhibition [2]: inconclusive: -14.7% [at 35.3 µM]

Oc1ccccc1-c1nnco1
Potency [3]: inconclusive: 13.3 µM [cytotoxic, single point]

COc1cc2c(cc1OC)C(=O)C(CC1CCN(Cc3ccccc3)CC1)C2 (stereo not drawn)
Potency [4]: inactive

CN1C(=O)CC(c2ccccc2)C1=O (stereo not drawn)
Potency [5]: inactive

CC(C)=CCC/C(C)=C/C#N
Potency [6]: inactive

O=C1C(c2[nH]c3ccccc3c2O)=Nc2ccccc21
activity change, positive = activation [7]: inconclusive: 22.8% [at 42.5 µM]

CN1CCN(c2cc3c(nn2)Oc2ccccc2N3C)CC1
activity change, negative = cytotoxicity [8]: inactive: -0.299% [at 19 µM]

O=C(NCCc1c[nH]c2ccccc12)c1cccnc1
Potency [9]: inactive | Potency [10]: inactive | Potency [3]: inconclusive: 13.3 µM [rising, single point]

Cc1cc2cc3c(C)cc(=O)oc3c(C)c2o1
Potency [9]: inactive

CC12CCC(C1)C(C)(C)C2O (stereo not drawn)
Potency [1]: inconclusive: 34.7 µM [activator, partial curve] | Potency [4]: inconclusive: 43.6 µM [activator, partial curve, poor fit]

OC[C@H]1O[C@@H](O[C@H]2[C@H](O)[C@@H](O)[C@H](O)O[C@@H]2CO)[C@H](O)[C@@H](O)[C@H]1O
Potency [1]: inactive

c1ccc2c(c1)CCCC2C1=NCCN1 (stereo not drawn)
Potency [8]: inactive

CC(=O)CC(C)(C)O
Potency [11]: inconclusive: 0.0493 µM [cytotoxic, full curve, poor fit]

CCn1cc(C(=O)O)c(=O)c2cnc(N3CCCC3)nc21
activation [12]: inactive: -0.921% [at 13.2 µM]

Brc1ccc(Br)c(Br)c1
Potency [1]: inconclusive: 55.3 µM [activator, single point] and inconclusive: 54.9 µM [activator, single point]

CN(C1CCCCC1)S(=O)(=O)c1ccccc1N
Potency [4]: inconclusive: 61.6 µM [activator, partial curve, poor fit]

O=C(O)CCSSCCC(=O)O
Potency [13]: inactive

CC(C)CCCC(C)N (stereo not drawn)
activity change, positive = activation [7]: inconclusive: 1.02% [at 42.5 µM] | Potency [14]: inconclusive: 13.3 µM [rising, single point]

COC(OC)(C(=O)c1ccccc1)c1ccccc1
Potency [9]: active: 0.0123 µM [inconclusive]

CCCCCCCCCC(C)=O
Potency [13]: inactive

CNC(=O)NC
Potency [15]: inactive | activity, negative = inhibition [2]: inconclusive: -7.35%

CCOc1ccc(O)cc1
Potency [14]: inactive

CC(C)CCOC(=O)c1ccc(N(C)C)cc1
Potency [11]: inconclusive: 26.6 µM [rising, partial curve, poor fit] | Potency [13]: inconclusive: 11.9 µM [cytotoxic, partial curve, poor fit]

CC(C)(C)c1ccc(N)cc1
activity change, positive = activation [7]: inconclusive: 14% | Potency [6]: inconclusive: 61.7 µM [activator, single point]

CCCCCCCC1CCCC1=O (stereo not drawn)
Potency [13]: inactive

CCO[Si](CCCS)(OCC)OCC
Potency [6]: inactive | Potency [4]: inconclusive: 49 µM [activator, partial curve]

Cc1cccc(N)n1
Potency [12]: inconclusive: 8.26 µM [rising, partial curve]

CC(C)OCC1CO1 (stereo not drawn)
Potency [12]: inactive | Potency [16]: inactive

C/C(=N\O)c1ccc(OCC(=O)N2CCCCC2)cc1
Potency [17]: inactive

CCOc1ccc2nc(N)sc2c1
Potency [17]: inconclusive: 48.6 µM [inhibitor, partial curve]

O=C(O)c1cc(Cl)cc([N+](=O)[O-])c1Cl
Potency [11]: inactive | Potency [6]: inactive

CC(C)(C)C(=O)NCCCC(=O)O
Potency [8]: inconclusive: 1.19 µM [cytotoxic, single point]

CC(C)(C)OC(=O)c1cccc(N)c1
Potency [9]: active: 56.4 µM [inconclusive]

CCCCN1C=CN(C)C1
Potency [5]: inactive

CC(C)(C)OC(=O)c1ccc(O)cc1
Potency [5]: inactive | activity change, positive = activation [7]: inconclusive: 14.1% | Potency [4]: inactive | Potency [16]: inactive | activity, negative = inhibition [2]: inconclusive: -3.58%

NCCCC(N)(C(=O)O)C(F)F (stereo not drawn)
activity, negative = inhibition [2]: inconclusive: 4.02% [at 35.3 µM]

CC(C)NC(=O)NC(C)C
Potency [12]: inactive

N=C(N)c1ccc2cc(OC(=O)c3ccc(N=C(N)N)cc3)ccc2c1
Potency [11]: inactive

Nc1cc(C(=O)O)c(O)c(S(=O)(=O)O)c1
Potency [15]: inactive

Cc1ccc(C)c(S(=O)(=O)O)c1
Potency [15]: inactive | Potency [17]: inactive

CCCCN(CC)c1nc(C)nc2c1c(C)cn2-c1c(C)cc(C)cc1C
Potency [18]: active: 12.8 µM | Potency [19]: active: 16.8 µM

O=C(c1ccc(Cl)cc1)N1CCN(c2ccc([N+](=O)[O-])c3ncccc23)CC1
Potency [18]: inconclusive: 8.74 µM [inhibitor] | Potency [19]: inconclusive: 16.2 µM [cytotoxic]

COC(=O)C1=C(C)NC(C)=C([N+](=O)[O-])C1c1ccccc1C(F)(F)F (stereo not drawn)
Potency [18]: inconclusive: 23.7 µM [inhibitor, single point] | Potency [19]: inconclusive: 33.5 µM [cytotoxic, partial curve, poor fit]

C=C1C(=O)O[C@@H]2[C@H]3O[C@]3(C)CCC=C(C)CC[C@@H]12
Potency [18]: inconclusive: 27.6 µM [inhibitor] | Potency [19]: inconclusive: 33.5 µM [cytotoxic, single point]

O=c1oc(Cl)c(Cl)c2ccccc12
Potency [18]: inconclusive: 28.7 µM [inhibitor] | Potency [19]: inconclusive: 22 µM [cytotoxic]

O=C1C2C=CC=CC2=NC(=S)N1CCN1CCC(=C(c2ccc(F)cc2)c2ccc(F)cc2)CC1 (stereo not drawn)
Potency [18]: active: 25.6 µM | Potency [19]: inconclusive: 33.5 µM [cytotoxic, single point]
